# ± gives the standard deviation of the averaged measurements. This is one part of the list.
# Tested on: PfAP2-LT AP2 domain (GST-tagged)
# Assay: gcPBM binding intensity (ln(normalized median fluorescence intensity)); higher = stronger DNA binding
# Summary of the method: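 Alexa488 anti-GST antibody, scanned at 488 nm, detected GST-tagged P. falciparum DNA-binding domains that had been expressed in E. coli and incubated for 1 h on an Agilent 4 × 180k array. The array carried primer-extended double-stranded 36-bp intergenic genomic probes and negative controls. Binding intensity is the highest Masliner-normalised natural-log median intensity across replicate spots of either orientation of each probe.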
row,Sequence,gcPBM binding intensity (ln)
1,ATTTTTTTTTTTAAATGTACATAATATATATATAAT [XGTACX_site2686],8.63 ± 0.37
2,TATTAAACTAAATGTAGTACATACACAAACGTAATC [XGTACX_site4905],8.85 ± 0.43
3,TATTCGTGCAATAATGGTACACTTATAAATTATTCA [XGTACX_site1430],8.55 ± 0.32
4,AAAAAAATTTGTATCACACACGTATTATAAAAAAAT [CACACA_site4182],8.93 ± 0.47
5,CGAACATTATAAATGTCATTTTTTCCAACTTGATCT [GTGCAC_negctrl_site501],8.58 ± 0.41
6,AAGCATTTCCATGGTGGTACTATACAAATAATAATT [XGTACX_site6193],8.7 ± 0.55
7,TATAAATAATGTTAAACACACATACCGATATATAAC [CACACA_site7306],9.03 ± 0.36
8,AGTGTATTTTTATGTTGTACATGTAATATTTTTGAT [XGTACX_site541],8.96 ± 0.3
9,TATATAATATATTAATGTACGTTATATGTATTCCTT [XGTACX_site6140],8.89 ± 0.52
10,TAATTCATCATATGCACACACAATACCAAAATGTGC [CACACA_site191],9.42 ± 0.28
11,TACAGATATTCATATAAACACACATACAAATTATGT [CACACA_site7929],9.02 ± 0.42
12,CTTTTTTTTTAAATATCACACACATATAATATATTC [CACACA_site9222],9.04 ± 0.45
13,AAACAGAATGCATATACACACATACAAAAAAGTGCA [CACACA_site6591],9.43 ± 0.47
14,TGTGTACCGATATTAAGTTTAACGTTATAAAAATAT [CACACA_negctrl_site1547],8.65 ± 0.55
15,TTTCTAAACCGGTACAGTACATATAAAAATAGAATA [XGTACX_site6662],8.77 ± 0.61
16,AAAGGACAAAAAAATGCATGCCGTTAAATTATGTAC [TGCATGCA_site512],9.05 ± 0.47
17,TATGTGGCACAAAAGGGTACATATAATTTATACAGG [XGTACX_site5499],8.88 ± 0.6
18,AATTATTGTATGCTATACGTTCCCCTCTAATTTATC [CACACA_negctrl_site1052],9.02 ± 0.45
19,TATTATTTTATGAATACACACATATACGAAAATATT [CACACA_site964],8.72 ± 0.34
20,ATTGGGTACAAATACACACACATATAAATATTAATA [CACACA_site7173],9.41 ± 0.45
21,TATTTTTATATAATGTGTACTTATACCTTATTTTTT [XGTACX_site1658],8.82 ± 0.46
22,TATATTTTTTTTGTGCGTACATACCATTTTAATAAT [XGTACX_site2751],8.97 ± 0.49
23,CACAAACAAAAACACACACACACACCCACAAAAATG [CACACA_site2429],10.2 ± 0.34

row,Sequence,gcPBM binding intensity (ln)
1,CTAAAAATCTTTTGTTGTACTTTTAGATAATCAGGA [XGTACX_site3968],8.24 ± 0.4
2,TACATATTTATATACACACACACCGTCCGTGTTAAA [CACACA_site7413],9.43 ± 0.28
3,AAGTAAAAAAATAGCACACACACAAAAACACAGACA [CACACA_site4839],10.1
4,AAAGGGATGTTCATTCTTTTTTTTTTTTTTGTATAT [CACACA_negctrl_site511],8.59 ± 0.45
5,AAAAAAAAAAAACACACACACACACTAATACATACA [CACACA_site8135],10.1 ± 0.12
6,TTTCCCTACCAAAAATGTACTTATAAGCGTTTTTAT [XGTACX_site739],8.77 ± 0.41
7,TTTTTAAATTATTGCACACAAAAATGAAAGGAAAAA [CACACA_site1455],8.71 ± 0.41
8,CACTAAAATAAACACACACACACACCGATATATATA [CACACA_site9379],9.96 ± 0.014
9,TATATTTATATGATAACACACATAAATTATACATTT [CACACA_site1671],8.71 ± 0.4
10,CTTGTCATTTTGCACACACACATGTATAGGTTATTA [CACACA_site7431],9.67 ± 0.16
11,TTAATTTTATTTTTTTGTACACATAAATATTATAAA [XGTACX_site4680],8.41 ± 0.47
12,TTTTTTTAAATATACACACACATTTATACCTATATA [CACACA_site7572],9.2 ± 0.4
13,TATAACTATAAAAGTAGTACACATATATATTATATA [XGTACX_site1391],8.74 ± 0.38
14,TATATATATATAGACACACACACACCCATATATATA [CACACA_site4117],9.94 ± 0.23
15,AATGGTTTAAAATACTGTACATATATATAAAAGTAA [XGTACX_site6187],8.73 ± 0.46
16,TTCCTAATTGACAACACACACAACAAAAAAGGGATT [CACACA_site1279],9.34 ± 0.36
17,TACCTTTTTTGTTTTATGCACACCATATAACCAAGG [CACACA_site30],8.98 ± 0.42
18,TTTTTTTTTCCGTGTTGTACAAAAAAAAAGATTTTG [XGTACX_site3925],8.21 ± 0.39
19,TATAACTATTCACAGACATGCACATAATAACAATAA [TGCATGCA_site207],8.88 ± 0.4
20,AAGAAATATTTATACACACACACAAACATATAAATA [CACACA_site6981],9.9 ± 0.24
21,TAAAAAAAAAAAAAAGCATGCTATATTATATTACAC [TGCATGCA_site241],8.7 ± 0.39
22,AGTCTGAATAAAATTACACACATATACATATATATA [CACACA_site1780],8.96 ± 0.4
23,ATATATAAATTTTAGTGTACATTAATTTTTTTTTTT [XGTACX_site7782],8.59 ± 0.45

row,Sequence,gcPBM binding intensity (ln)
1,AAAAAAAAAAAAAAAACACACAATAAAGTAAAATTT [CACACA_site135],8.8 ± 0.43
2,TAAATATATTAAGCTTGTACATGAAAAAAAAAAAAA [XGTACX_site3264],8.59 ± 0.4
3,TATGTATATAAATTAACACACATATGTGGTTAATAG [CACACA_site3143],8.8 ± 0.37
4,ATAATATATACTAAAAGTACATATTATAATAAATTA [XGTACX_site6749],8.59 ± 0.42
5,GAAATAATTGTTAAAGGTACACAATGCATATACAAT [XGTACX_site238],9.02 ± 0.4
6,AGGAAAATAGAAAAAGCACACATATATTTTGGAATG [CACACA_site8080],8.98 ± 0.54
7,ACTTCATTTTTTTTATGTACACAGAAGATTTACAAA [XGTACX_site4021],8.5 ± 0.47
8,AAAATAATAATTAATACATGCATTAATTCTTTTTTT [TGCATGCA_site741],8.48 ± 0.51
9,ACATATGTATGAATATCAAAAAATCCCTATTTAATG [GTGCAC_negctrl_site27],8.78 ± 0.47
10,TATATACATATATATACACACATATATATATTTTAT [CACACA_site3788],8.96 ± 0.47
11,CATATATTATTTAATAGTACATATAAAAGAAAAAAA [XGTACX_site4643],8.6 ± 0.56
12,TATATAAATAAATGTGTACACACATTAAAATCAAAC [CACACA_site8733],9.16 ± 0.43
13,ATTTATTTATTTTTTTGTACGAATGTTGCACATATA [XGTACX_site4101],8.89 ± 0.47
14,AAATCAACTTATTTTTGTACATATATTTATTATATA [XGTACX_site2925],8.9 ± 0.4
15,ATAGAAACATATTGACGTACAGTATAATAATACAGT [XGTACX_site197],9.12 ± 0.38
16,ATATATTATAGAGGTGTGCACTACATACATTATAAT [GTGCAC_site9991],9.23 ± 0.48
17,TCTTTATGTAAGGTCTTCCACAAAAAAATTAAAAAA [TGCATGCA_negctrl_site229],8.13 ± 0.4
18,GAAAAATTAATAAATAAACACACATATATATATATA [CACACA_site8835],9.43 ± 0.37
19,ATTTTCACCTGAACGGTGCATATTTAATTTTAGGTT,8.99 ± 0.47
20,ATATATGTACAAATTGTGCGCAATAATTTTGTCTTT,9.13 ± 0.35
21,ATACATATATATGTGTGTACATATGTGTATACATTT [XGTACX_site6544],9.26 ± 0.35
22,ATATGTATTAAGTGTACACATATAATGGGTTTGTTA [CACACA_site5682],8.95 ± 0.38
23,TTTTATAAATCTAAACGTATCTAAATGAATAATTAA [GTGCAC_negctrl_site44],8.14 ± 0.43

row,Sequence,gcPBM binding intensity (ln)
1,GAATGAAAATAAAATTGTACACATATCTATATCTAT [XGTACX_site2642],8.76 ± 0.42
2,TATATTATATGTATTGCACACCTTCAACAACTACTT [CACACA_site8121],9.2 ± 0.49
3,AAAAAAAAAAAAAGTTGTACATTATTTTCCTAATTC [XGTACX_site7998],8.46 ± 0.38
4,TTTAATTAGGATAATTGTACTGAACTAAGTATATTT [XGTACX_site1871],8.46 ± 0.45
5,TTTTTTATTTTGTGCACACACATAAAAATATATATA [CACACA_site761],9.04 ± 0.42
6,TTTTTTTTTTTTTAAACATGCATAATAAATATAATA [TGCATGCA_site265],8.07 ± 0.41
7,TATTTATTTATGGACACACATACAAATCTTCCAGAC [CACACA_site942],8.93 ± 0.41
8,TAATCATAACTTGATACGCACACGTTATATAAATAA [CACACA_site1579],8.78 ± 0.33
9,TTGTTTTCTTATTATTACTACAATACTTAAGTCAGA [TGCATGCA_negctrl_site184],8.58 ± 0.42
10,TTTTGTTGGATACAAAAATTACAAATTATTTAAAAA [TGCATGCA_negctrl_site532],8.07 ± 0.4
11,TTTTTTATTTTAAAAACATGCATAAAATATAATAGT [TGCATGCA_site762],8.32 ± 0.35
12,TATATATTTAATTTCACACATATATATAATTATTAT [CACACA_site4936],8.76 ± 0.38
13,ATATTATATATAAAATGTACATTTAAAAATATTATA [XGTACX_site889],8.66 ± 0.42
14,ATACACACTTAAAAAAGTACTTAACTACATGAATTG [XGTACX_site1203],8.82 ± 0.41
15,TATCATAAAAAATATACACACAAAGGATATTTATAT [CACACA_site6841],8.99 ± 0.29
16,TATGAACACCAACACACACACAAAAAAAAAAAAAAA [CACACA_site2013],9.49 ± 0.48
17,GAATACATAATAACATGTACACACATTCTTCTATAA [XGTACX_site8725],9.01 ± 0.36
18,TATATATATAGAAATGCATGTTAATAAAAGTTATAA [TGCATGCA_site947],8.9 ± 0.36
19,AAAAATAATCATTAGGTGCAAAAAATATATATATAT [GTGCAC_site9631],9.27 ± 0.31
20,TACGTAAAATAATTGAGTACATAATTATATATATAT [XGTACX_site5361],8.74 ± 0.46
